Test results: ChEMBL document CHEMBL1201862, “PubChem BioAssay data set” (2004)

system: NCI-H322M; assay: growth of human tumour cells (NCI), 48 h

Compound	GI50
CCn1c(-c2ccccc2)cs/c1=N\C(P(=O)(O)O)P(=O)(O)O	inactive: > 100 µM
COc1ccc(N)c(C(=O)CCNC(C)=O)c1 [KINURENAMINE]	inactive: > 100 µM
CC(C)(C)OC(=O)N[C@H]1CC(O)c2ccccc2N(CC(=O)O)C1=O (some centres not stated)	inactive: > 100 µM
CN(CCNC(=O)c1nn(-c2ccccc2)c2c1ccc1ccccc12)CCNC(=O)c1nn(-c2ccccc2)c2c1ccc1ccccc12	inactive: 3.1 µM
COc1ccc(-n2c(=O)[nH]n(C(C)=O)c2=O)cc1	inactive: > 100 µM
ClC(Cl)(Cl)C1CCOC1n1nc2ccccc2n1 (configuration not stated)	inactive: > 100 µM
O=c1c(C(c2ccc3ccccc3c2)c2c(O)oc3cc(O)ccc3c2=O)c(O)oc2cc(O)ccc12	inactive: > 100 µM
CC(C)(C)N/N=C(/Cc1nc2c3c(ccc2nc1O)C(=O)c1ccccc1C3=O)C(=O)NC1=C(Cl)C(=O)c2ccccc2C1=O	inactive: 33 µM
CCN(CC)CC(=O)NC1c2ccccc2Oc2c(C)cccc21 (configuration not stated)	inactive: > 100 µM
N#CC1(C#N)C(C#N)(C#N)C1(C#N)C(N)=O	inactive: > 100 µM
Cc1ccc(S(=O)(=O)NC(=O)NC23CC4CC(CC(F)(C4)C2)C3)cc1	inactive: > 100 µM
CC1=CP(=O)(OC(C)C)C=C(C)C1=C(Cl)Cl (configuration not stated)	inactive: > 100 µM
CC1=C(C(=O)NCc2ccccc2)C(/C=C/c2ccccc2)C(C(=O)NCc2ccccc2)=C(C)N1	inactive: > 100 µM
CC1(C)Cc2c(oc3ncnc(N)c23)CS1	inactive: > 100 µM
COC(=O)Nc1nc2cc(S(=O)(=O)N3CCOCC3)ccc2[nH]1	inactive: > 100 µM
COC(=O)C(c1ccc(OC)cc1)N1C(=O)[C@@H](NC(=O)c2ccccc2)[C@H]1[C@@H](C)O (some centres not stated)	inactive: > 100 µM
Cc1cc(Cl)ccc1NC1=NC(=O)C(CC(=O)Nc2ccc([N+](=O)[O-])cc2[N+](=O)[O-])S1 (configuration not stated)	inactive: 36.3 µM
Brc1ccc(C2CC(c3cccc4ccccc34)=Nc3ccccc3S2)cc1 (configuration not stated)	inactive: > 100 µM
O=C(NCCn1ccnn1)Nc1ccccc1	inactive: > 100 µM
COC(=O)[C@](NC(=O)OCc1ccccc1)([C@@H](C)Sc1ccc(C)cc1)C(F)(F)F	inactive: > 100 µM
COC(=O)C(=O)C(C(=O)C(=O)Nc1ccc(C)c(C)c1)c1nc2ccc([N+](=O)[O-])cc2nc1O (configuration not stated)	inactive: > 100 µM
Cc1cc(OP2(=O)NCc3ccncc3O2)ccc1Cl (configuration not stated)	inactive: > 100 µM
C[C@@H]1CC(=O)C[C@@H]2CC[C@H]3[C@@H]4CC[C@H](OC(=O)c5cccc6cc7ccccc7nc56)[C@H]4CC[C@@H]3[C@H]21	inactive: 26.3 µM

Compound	GI50
CCOP12(OCC)NC(=O)OC1(C(F)(F)F)c1ccccc1O2 (configuration not stated)	inactive: > 100 µM
O=C(NNc1ccc([N+](=O)[O-])cc1[N+](=O)[O-])/C(O)=C\C(=O)c1ccccc1	inactive: 23.6 µM
CCCCCC1CC=CC(NC(=O)OCc2ccccc2)C1/C=C/CCCC1OCCO1 (configuration not stated)	inactive: > 100 µM
O=[N+]([O-])c1ccc(C(c2c[nH]c3ccccc23)c2c[nH]c3ccccc23)cc1	inactive: 14.4 µM
COc1ccc(CC2NC(=O)/C=C/CC(C(C)C3OC3c3ccccc3)OC(=O)C(CC(C)C)OC(=O)C(C)CNC2=O)cc1Cl (configuration not stated)	active: 3.78e-05 µM
COC(=O)C(=O)C(C(=O)C=C(C)C)C(=O)C(=O)Nc1ccc(Cl)cc1C (configuration not stated)	inactive: > 100 µM
NS(=O)(=O)c1cc(C(=O)O)c(O)c2ccccc12	inactive: > 100 µM
O=P(O)(O)CCP(=O)(O)O	inactive: > 100 µM
COC(=O)C1=CON2C3CC4CC(C3)CC(C4)C12C (configuration not stated)	inactive: > 100 µM
Cc1cc2[nH]c(=NS(=O)(=O)c3cc(C)c(Cl)cc3S)[nH]c2cc1C	inactive: 40.1 µM
Cc1ccc2c(c1)-c1c3c(nn1-c1ccccc1)-c1ccccc1SC3O2 (configuration not stated)	inactive: > 100 µM
Cc1ccc(/C=C/c2n[nH]c(N/N=C/c3ccc4c(c3)OCO4)nc2=O)cc1	inactive: 21.7 µM
Cc1nc(OCc2ccccc2)c2ncn(CCO)c2n1	inactive: > 100 µM
COc1ccc(-c2onc(-c3ccc([N+](=O)[O-])cc3)c2C2=NCCCN2)cc1	inactive: 80.4 µM
C=CCSc1nc2c(N)ncnc2n1C1OC(CO)C(O)C1O (configuration not stated)	inactive: > 100 µM
CCN(CC)CCC(=O)Nc1ccc2sc3ccccc3c(=O)c2n1	inactive: 16.6 µM
CC(=O)Oc1cc(OC(C)=O)c2c(=O)c3ccccc3n(C)c2c1	inactive: 22.3 µM
CCOC(=O)C(Cc1cccn1C(=O)OC(C)(C)C)[N+](=O)[O-] (configuration not stated)	inactive: 31.6 µM
N#CC1(C#N)C2C=CC(C3CCC=C32)C1(C#N)C#N (configuration not stated)	inactive: > 10 µM
Nc1ccccc1OCc1cc(=O)c(OCc2ccccc2)co1	inactive: 74.6 µM
COC(=NCCC1=CCCCC1)OC	inactive: > 100 µM
CC1(C)[C@@H]2C[C@H]1C(Cc1ccccc1C[C@H]1c3cc(-c4ccccn4)ncc3[C@H]3C[C@@H]1C3(C)C)c1cc(-c3ccccn3)ncc12 (some centres not stated)	active: 0.411 µM
COc1ccccc1CNCc1nc2ccccc2[nH]1	inactive: > 100 µM

Compound	GI50
CC(C)=CC1C(COC(=O)c2cc3c(cc2Cl)OCO3)C1(C)C (configuration not stated)	inactive: 80.5 µM
CC(C)(C)OC(=O)NC(Cc1ccccc1)C(=S)N1CCCC1 (configuration not stated)	inactive: > 100 µM
CCOC(=O)[C@H]1C[C@]23CN(C(=O)OC(C)(C)C)CC[C@H]2CCC2(SCCCS2)[C@@H]3N1C	inactive: 54 µM
CCc1nc(N)nc(N)c1-c1ccc(N2CCNCC2)cc1	inactive: > 92.9 µM
COC(=O)[C@@]12CC3CN(Cc4c1[nH]c1ccccc41)C2CC3=O	inactive: > 100 µM
C(=N\c1ccc(-c2nc3ccccc3s2)cc1)/c1cccs1	inactive: > 100 µM
COc1cc(C2c3cc4c(cc3OC(NCCc3ccccc3)C2C)OCO4)cc(OC)c1OC (configuration not stated)	active: 0.486 µM
Cn1c(=S)c2nc(SCCCc3ccccc3)[nH]c2n(C)c1=O	inactive: 22 µM
c1ccc2/c3[nH]/c(c2c1)=N\c1ccc(cc1)-c1nc2ccc(cc2o1)/N=c1/[nH]/c(c2ccccc12)=N/c1ccc2nc(oc2c1)-c1ccc(cc1)\N=3	inactive: 28.8 µM
CCOC(=O)Cc1nn2c(=O)cc(C)nc2s1	inactive: > 100 µM
CNCCCNC1(c2cc3ccccc3s2)CCCCC1	inactive: 8.05 µM
N#CC1C(=O)SC2c3ccccc3C(=O)c3ccccc3C12 (configuration not stated)	inactive: > 10 µM
Cc1c(O)c(C)c2c(C)cn(C(=O)C(C)(C)C)c2c1C	inactive: 19.8 µM
CCOc1cc(-c2nc3ccccn3c2/N=C/c2cc([N+](=O)[O-])cc([N+](=O)[O-])c2O)ccc1O	inactive: > 100 µM
C=CC(C)(C)C(=C)C(=O)Nc1ccccc1I	inactive: > 100 µM
O=C1NC(c2cccc3ccccc23)Nc2ccccc21 (configuration not stated)	inactive: 1.18 µM
O=C1CCCCN1	inactive: > 1120 µM
COc1ccc2nc(-c3ccc(O)cc3)ccc2c1	inactive: > 100 µM
CCCCc1ccc(N2C(=O)c3cc([N+](=O)[O-])cnc3S2(=O)=O)cc1	inactive: 44.9 µM
O=C(O)c1cc(NCc2cc(O)ccc2O)ccc1O [LAVENDUSTIN C]	inactive: > 100 µM
Cc1cc2oc(=O)[nH]c(=S)c2c(C)c1C	inactive: > 100 µM
COc1cc2c(cc1OC)CC(=O)Nc1cc(OC)c(OC)cc1CC2	inactive: 52.4 µM
O=c1cc(/N=N\c2ccc(Cl)c(Cl)c2)[nH]c(=O)[nH]1	inactive: 12.1 µM

Compound	GI50
CC(C)=Cc1cc(C(=O)NCCNC(=O)c2cc(C=C(C)C)nc(NC#N)n2)nc(NC#N)n1	inactive: > 100 µM
CN(C)c1ccc(/C=C(\NC(=O)c2ccccc2)C(=O)Nc2ccccc2C(=O)NN2C(=O)CSC2c2ccc(N(C)C)cc2)cc1 (configuration not stated)	inactive: > 100 µM
Cc1cccc(N(CC(=O)O)S(=O)(=O)c2ccccc2)c1	inactive: > 100 µM
O=C1c2ccccc2C2(O)Oc3cccc(O)c3C12O (configuration not stated)	inactive: > 100 µM
C[Si](C)(C)OC1c2[nH]c3ccccc3c2CN2C(=O)CCC12 (configuration not stated)	inactive: > 100 µM
CC(C)(CN1CCCCC1)C(=O)CC(SCCS(=O)(=O)O)c1ccc(Br)cc1 (configuration not stated)	inactive: 1.96 µM
O=C(Nc1nc2c(ncn2C2OC(CO)C(O)C2O)c(=O)[nH]1)c1ccccc1 (configuration not stated)	inactive: > 100 µM
COC(=O)[C@]1(C)CCCn2c(=O)n(-c3ccccc3)c(=O)n21	inactive: > 100 µM
CC1=CC(C2/C(=N/O)C=C(C)CC2(C)C)C(O)C(C)(C)C1 (configuration not stated)	inactive: 18 µM
Cc1cc(N(CCC#N)CCC#N)ccc1/C=C1\SC(=S)NC1=O	inactive: > 100 µM
CC1(C)C2CC(=O)C1(C)C(O)C2Br (configuration not stated)	inactive: > 100 µM
CCN(CC)c1ccc2cc(-c3nnc(-c4ccccc4)o3)c(=O)oc2c1	inactive: 53.8 µM
Cn1cnc([N+](=O)[O-])c1Sc1nccc(O)n1	inactive: > 100 µM
O=C1OC2C(O)COC2(O)C1(O)Cc1c[nH]c2ccccc12.O=C1OC2C(O)COC2(OCc2c[nH]c3ccccc23)C1O (configuration not stated)	inactive: > 100 µM
Cc1[nH]n(C2=NCCN2)c(=O)c1C	inactive: > 100 µM
N#CCCN(c1ccc(-c2nnc(NC(=O)CNNC(=O)CC(=O)Nc3ccccc3)s2)cc1)S(=O)(=O)c1ccccc1	inactive: > 100 µM
COc1ccc2nccc(NCCCN3CCN(CCCNc4ccnc5ccc(OC)cc45)CC3)c2c1	active: 0.48 µM
Brc1cccc(Nc2nc(-c3cccs3)nc3ccc(Br)cc23)c1	inactive: 29.6 µM
Cc1ccc([N+](=O)[O-])cc1S(=O)(=O)Nc1ccc(C2=NOC(c3ccccc3)C2)cc1 (configuration not stated)	inactive: 21 µM
CCN(CC)CC1CCCCN1CC(=O)N1c2ccccc2C(=O)Nc2cccnc21 (configuration not stated) [OTENZEPAD]	inactive: 55.8 µM
COc1ccc(CNc2cc(OC)c(OC)c(OC)c2)cc1	inactive: 5.53 µM
CC1(c2nc3ccccc3[nH]2)CCC(C(=O)O)C(C)(C)O1 (configuration not stated)	inactive: > 100 µM
CC1=C2O[C@]3(O)C=C2C(=C(O)C1=O)[C@@H]1O[C@H](CC[C@H](C)/C=C(\C)C[C@@H](C)C[C@@H]3C)[C@H](C)[C@H](O)[C@H]1C [KENDOMYCIN]	inactive: 1.3 µM

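Test compounds were applied to cells in 96-well plates for 48 hours at 5 doses. Abbreviation: GI50, concentration required for 50% inhibition of growth.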 The source made the active and inactive calls. Rule as the data show it: active = GI50 up to about 1.1 µM and inactive = higher.
